Publication PMC3325213 (PLoS Pathogens, 2012)
These are yes or no findings as the source states them, for the method shown. Some entries that bind do so weakly or less than the wild type.

Key:
Assay in all cases: two-hybrid
[1] = biological target: Tsi2 D23K–V–Zif (Pseudomonas aeruginosa (PAO1)) (UniProt Q9I0D9)
[2] = biological target: Tsi2^D45K–V–Zif (Pseudomonas aeruginosa (PAO1)) (UniProt Q9I0D9)
[3] = biological target: Tsi2–V–Zif (type VI secretion immunity 2 fused C-terminally to the VSV-G epitope followed by Zif) (Pseudomonas aeruginosa (PAO1)) (UniProt Q9I0D9)
[4] = biological target: Tsi2 E73K–V–Zif (Pseudomonas aeruginosa (PAO1)) (UniProt Q9I0D9)
[5] = biological target: Tsi2 D69K–V–Zif (Pseudomonas aeruginosa (PAO1)) (UniProt Q9I0D9)
[6] = biological target: Tsi2 Cys14 glutamine substitution mutant–V–Zif (Pseudomonas aeruginosa (PAO1)) (UniProt Q9I0D9)
[7] = biological target: Tsi2 Glu21 alanine substitution mutant–V–Zif (Pseudomonas aeruginosa (PAO1)) (UniProt Q9I0D9)
[8] = biological target: Tsi2 E36K–V–Zif (Pseudomonas aeruginosa (PAO1)) (UniProt Q9I0D9)
[9] = biological target: Tsi2 E56K–V–Zif (Pseudomonas aeruginosa (PAO1)) (UniProt Q9I0D9)
[10] = biological target: Tsi2 Val10 glutamine substitution mutant–V–Zif (Pseudomonas aeruginosa (PAO1)) (UniProt Q9I0D9)
[11] = biological target: Tsi2^E38K–V–Zif (Pseudomonas aeruginosa (PAO1)) (UniProt Q9I0D9)
[12] = biological target: Tsi2 E74K–V–Zif (Pseudomonas aeruginosa (PAO1)) (UniProt Q9I0D9)
[13] = biological target: Tsi2 Arg18 alanine substitution mutant–V–Zif (Pseudomonas aeruginosa (PAO1)) (UniProt Q9I0D9)
[14] = biological target: Tsi2 D49K–V–Zif (Pseudomonas aeruginosa (PAO1)) (UniProt Q9I0D9)
[15] = biological target: Tsi2 D30K–V–Zif (Pseudomonas aeruginosa (PAO1)) (UniProt Q9I0D9)
[16] = biological target: Tsi2 Glu38Gln–V–Zif (Pseudomonas aeruginosa (PAO1)) (UniProt Q9I0D9)
[17] = biological target: Tsi2 Asp45Asn–V–Zif (Pseudomonas aeruginosa (PAO1)) (UniProt Q9I0D9)
[18] = biological target: Tsi2^A47Q–V–Zif (Pseudomonas aeruginosa (PAO1)) (UniProt Q9I0D9)

Row | Substance | binding [1] | binding [2] | binding [3] | binding [4] | binding [5] | binding [6] | binding [7] | binding [8] | binding [9] | binding [10] | binding [11] | binding [12] | binding [13] | binding [14] | binding [15] | binding [16] | binding [17] | binding [18]
1 | Tsi2–ω (Tsi2 as N-terminal fusion to the ω subunit of E. coli RNA polymerase) (from UniProt Q9I0D9 1-77) | binds | binds | binds | binds | binds | binds | binds | binds | binds | binds | binds | binds | binds | binds | binds | – | – | –
2 | Tse2NT–ω (non-toxic Tse2 T79A S80A as N-terminal fusion to the ω subunit of E. coli RNA polymerase) (from UniProt Q9I0E0 1-158) | binds | no binding | binds | binds | binds | – | – | binds | binds | – | no binding | binds | – | binds | binds | binds | binds | binds
